# Test results published in the antibiotic and cytotoxicity screens of Wong et al. (2023).
# Some of the results follow.
# Legend:
# HSkMC = human skeletal muscle cells; test: cytotoxicity call (relative viability < 0.9); conditions: 10 µM
# HepG2 = test: cytotoxicity call (relative viability < 0.9); conditions: 10 µM
# S. aureus RN4220 = test: growth inhibition call (relative growth <= 0.2); conditions: 50 µM
Structure (SMILES),cytotoxicity call (HSkMC),cytotoxicity call (HepG2),growth inhibition call (S. aureus RN4220)
C[C@H]1CN([C@@H](C)CO)C(=O)Cc2cc(NS(C)(=O)=O)ccc2O[C@H]1CN(C)C(=O)Nc1ccccc1,inactive,inactive,inactive
COCC(=O)N1C[C@H](C)[C@@H](OC)CN(C)C(=O)c2cc(NC(=O)c3cc(C)on3)ccc2OC[C@@H]1C,inactive,inactive,inactive
OC1CCOCC1,inactive,inactive,inactive
C[C@H](CO)N1C[C@H](C)[C@@H](CN(C)S(=O)(=O)c2cccs2)Oc2c(NC(=O)C3CC3)cccc2C1=O,inactive,inactive,inactive
Cc1ccc(S(=O)(=O)Nc2cccc3c2O[C@@H](CN(C)C(=O)Nc2cccc4ccccc24)[C@H](C)CN([C@H](C)CO)C3=O)cc1,inactive,inactive,inactive
O=C1N[C@H](Cc2c[nH]c3ccccc23)COC(=O)[C@@H](Cc2ccc(F)cc2)CCC=CC[C@H]1CC(=O)N(CCO)Cc1ccccc1,inactive,active,inactive
COc1ccc(CNC(=O)C[C@@H]2C[C@H]3c4cc(NS(=O)(=O)c5ccc(F)cc5)ccc4O[C@H]3[C@@H](CO)O2)cc1,inactive,inactive,inactive
COc1cc(S(C)(=O)=O)ccc1Nc1nc2ccc(-c3ccc(NC(=O)[C@H](C)c4ccc(F)cc4)cc3)cn2n1,inactive,inactive,inactive
